# Measured values as given in PubChem BioAssay AID1671193 (National Center for Advancing Translational Sciences (NCATS), 2021).
# Among all 150,000 compounds or so, about 180 (0.12%) were called active. Inconclusive results, whose numbers are uncertain, are shown with a selection of clear calls. Calls come from the whole dose curve; as a rule, active = well fitted cell-killing curve with a large enough effect; inconclusive = small, poorly fitted or top-dose-only effect, or effect the other way; inactive = flat fitted curve, though single readings scatter. Potencies beside an inconclusive call are fits to weak or partial responses and may not hold up.
# Assay: GF-AFC viability counterscreen for inhibitors of alpha-synuclein gene (SNCA) expression; note: nearly all actives have a fitted effect of over 30% in size;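 for activity change, negative = cytotoxicity: 0% = DMSO-treated cells and -100% = medium-only wells without cells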
# Conditions: HEK-293-SNCA-luc viability, GF-AFC fluorescence, 24 h; activity change, negative = cytotoxicity: at 57.1 µM (top of the series) unless noted
# Outline: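 HEK-293-SNCA-luc cells (1500/well) plated 24 h, then exposed 24 h to a dilution series; GF-AFC added 30 min at 37C, fluorescence 405/540 nm; normalised to medium-only and DMSO wells, Hill fit.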
# Potency is the fitted concentration of half-maximal effect; tags give direction and shape of the fitted curve.
Structure (SMILES),Potency,"activity change, negative = cytotoxicity"
Cn1nc(C(=O)N2CCCCCCNC(=O)CC2)c2ccccc21,"inconclusive: 22.4 µM [cytotoxic, single point]",
COc1ccc(-n2nc(C)c([C@@H]3C=C[C@@H](NCc4ccc(F)cc4)C3)c2C)cc1,"inconclusive: 35.5 µM [cytotoxic, single point]",
O=C(c1nc(-c2ccc(Cl)cc2Cl)c2cnccn12)N1CCN(c2ncccn2)CC1,,inactive: -0.939%
O=c1cc(N2CCOCC2)oc2c(-c3cccc4[nH]ccc34)nccc12,,inactive: -2.74% [at 87.6 µM]
CCc1ccc(NC(=O)CN2C(=O)NC3(CCOCC3)C2=O)cc1,,inactive: 6.73%
C[C@H]1CC[C@@]2(OC1)O[C@H]1CC3C4CC[C@H]5C[C@@H](O[C@@H]6O[C@H](CO)[C@H](O[C@@H]7O[C@H](CO)[C@@H](O)[C@H](O[C@@H]8OC[C@@H](O)[C@H](O)[C@H]8O)[C@H]7O[C@@H]7O[C@H](CO)[C@@H](O)[C@H](O)[C@H]7O)[C@H](O)[C@H]6O)[C@H](O)C[C@]5(C)C4=CC(=O)[C@]3(C)[C@H]1[C@@H]2C (stereo partly drawn),"inconclusive: 1.79 µM [rising, single point]",
CN(C)C1CCN(C(=O)c2ccc(NC(=O)Nc3ccc(-c4nc(N5CCOCC5)nc(N5CCOCC5)n4)cc3)cc2)CC1,"inconclusive: 0.377 µM [cytotoxic, full curve]",
Cn1cccc1CN1CCCC2(C1)C(=NC1CCCCC1)NC(=O)N2c1cc(F)cc(F)c1 (stereo not drawn),,inactive: -2.39%
CC1CCC(C(=O)N(c2cc(C#CC(C)(C)C)sc2C(=O)O)C2CCC(O)CC2)CC1 (stereo not drawn),"inconclusive: 0.961 µM [cytotoxic, full curve, poor fit]",
CCCNc1cc(N2CCC(CCC(=O)Nc3cc(C)ccc3C)CC2)ncn1,"inconclusive: 3.16 µM [cytotoxic, full curve, poor fit]",
CCOC(=O)c1cnc2ccccc2c1NCCc1ccc(OC)c(OC)c1,"inconclusive: 39.8 µM [cytotoxic, partial curve, poor fit]",
c1cncc(Nc2cc3c(cn2)CN(Cc2ccc4[nH]ccc4c2)CCN3)c1,"inconclusive: 20 µM [cytotoxic, partial curve]",
COc1ccc(OCc2nc3c(n2Cc2ccccc2)C(=O)N(Cc2ccccc2F)CCN3)cc1OC,"inconclusive: 25.1 µM [cytotoxic, single point]",
CC(C)c1nc(-c2ccc(NC(=O)Nc3cccc(C(F)(F)F)c3)c3ccccc23)c2c(N)nccn12,"inconclusive: 7.52 µM [cytotoxic, full curve]",
CCCCOC(=O)c1ccc(NC(=O)c2cc3c(=O)n4cccc(C)c4nc3n2C)cc1,"inconclusive: 25.1 µM [rising, single point]",
Cc1nn(C)c(C)c1S(=O)(=O)NC1CCc2nn(CC3CC3)c(=O)n2CC1 (stereo not drawn),,inactive: 7.73%
CSc1ccccc1-c1nc(C2CCOC2)no1 (stereo not drawn),,inactive: -11.1%
CCOc1ccccc1C(=O)Nc1ccc2c(c1)N(C)C(=O)c1ccccc1S2,"inconclusive: 7.94 µM [cytotoxic, partial curve, poor fit]",
O=C(NCc1cccc(Cl)c1)C1CCN(c2ccnc3ccnn23)CC1,,inactive: 2.07%
N#CCCn1c(=O)c(-c2ccccc2)nc2cnc(N3CCOCC3)nc21,"inconclusive: 28.2 µM [rising, partial curve, poor fit]",
CCc1nn(-c2ccc(F)cc2)c(Oc2ccccc2)c1CCC(=O)NCC1CCCO1 (stereo not drawn),"inconclusive: 8.91 µM [cytotoxic, single point]",

Structure (SMILES),Potency,"activity change, negative = cytotoxicity"
COc1ccc(Nc2cnc3ccc(-c4ccc(OC)c(OC)c4)nn23)cc1,,inactive: -24% [at 87.6 µM]
CCCS(=O)(=O)Nc1ccc(F)c(C(=O)c2c[nH]c3ncc(-c4ccc(Cl)cc4)cc23)c1F,"inconclusive: 37.7 µM [cytotoxic, single point]",
COc1ccc(-c2noc(Nc3ccccc3)n2)cc1,,inactive: -4.47%
COC(=O)[C@@H]1Cc2c([nH]c3ccccc23)[C@H]2C[C@H](NCCNC(C)=O)C[C@@H](c3ccc(C)cc3)N21,,inactive: -6.82%
COc1ccc(-c2nc3cnc(N4CCOCC4)nc3n(C[C@H]3CCCO3)c2=O)cc1,"inconclusive: 3.16 µM [rising, full curve]",
Cc1cccc(N2CCN(C(=O)CSCc3ccc(F)cc3)CC2)c1C,,inactive: -7.16%
CCNc1cc(N2CCC(CCC(=O)NCC3CC3)CC2)ncn1,,inactive: 11.7%
O=C1CCC2(C(=O)NCCN3CCOCC3)CCCC=C2N1C1CCCC1 (stereo not drawn),"inconclusive: 14.1 µM [cytotoxic, partial curve]",
CCc1nc(NC(=O)C[C@H]2NC(=O)c3ccccc3NC2=O)sc1C,,inactive: 7.59%
Cc1ccc(Nc2ccnc(N3CCC(C(=O)N4CCN(c5ncccn5)CC4)CC3)n2)cc1,,inactive: -3.27% [at 12.5 µM]
CC1=C[C@@H](CNC(=O)c2ccc(C#N)cc2)[C@H](C(C)C)C[C@H]1Cc1nnc(-c2ccncc2)o1,,inactive: -16%
COc1ccc(Nc2ccnc(N3CCC(N[S+](=O)([O-])c4cccs4)CC3)n2)cc1,"inconclusive: 35.5 µM [cytotoxic, single point]",
COCCn1c(=O)c(-c2cccs2)nc2cnc(N3CCN(C)CC3)nc21,"inconclusive: 25.1 µM [rising, partial curve]",
CN1c2cc(C(=O)Nc3cccc(C(F)(F)F)c3)ccc2C(=O)N2CCCCC21 (stereo not drawn),,inactive: -2.86% [at 12.5 µM]
Cc1cccc(-n2nc(-c3c(C)nc4scc(CC(=O)NC5CCCCC5)n4c3=O)cc2C)c1C,"inconclusive: 39.8 µM [cytotoxic, single point]",
N#Cc1ccc(CN2CCC3(CCNCC3)CC2)cc1,"inconclusive: 6.31 µM [cytotoxic, single point]",
COc1cccc(C2CC(=O)Nc3cc4c(cc32)OCO4)c1OC(C)C (stereo not drawn),"inconclusive: 20 µM [cytotoxic, partial curve, poor fit]",
Cc1nc(-c2ccccc2)n(CC(=O)Nc2ccc(C(C)C)cc2)c(=O)c1CCO,"inconclusive: 39.8 µM [cytotoxic, single point]",
COc1ccc(-c2cc(N3CCCC(NC(=O)c4cccc(N(C)C)c4)C3)n[nH]2)cc1 (stereo not drawn),,inactive: -18.3%
Cc1cc(-c2ccc(C)c(S(=O)(=O)N3CCC(C)CC3)c2)on1,,inactive: -4.9%
CCc1nnc(CN(CC)C(=O)c2ccc3nc(-c4ccccc4)cn3c2)o1,,inactive: 2.67%

Structure (SMILES),Potency,"activity change, negative = cytotoxicity"
COc1ccc(CNC(=O)c2ccc3nc(CCc4ccccc4)oc3c2)cc1OC,"inconclusive: 31.6 µM [cytotoxic, single point]",
COc1ccccc1CN1CC(c2noc(-c3sccc3C)n2)CC1=O (stereo not drawn),,inactive: 1.01%
Cn1cc(-c2ccc3c(n2)CN(Cc2ccc(C(F)(F)F)cc2)C(=O)CO3)cn1,,inactive: -2.65% [at 87.6 µM]
Cc1cc(C)c(CNC(=O)c2nc(-c3cccnc3)cc3[nH]ccc23)c(=O)[nH]1,"inconclusive: 28.2 µM [cytotoxic, partial curve, poor fit]",
COc1ccc(-c2cc(N3CCCN(C(=O)c4ccc(C(C)(C)C)cc4)CC3)n[nH]2)cc1,"inconclusive: 10 µM [cytotoxic, partial curve, poor fit]",
CCNc1ncc2nc(-c3cccc(C#N)c3)c(=O)n(CCC#N)c2n1,"inconclusive: 14.1 µM [rising, partial curve]",
COc1ccccc1NC(=O)c1sc2nc(C)c(C(=O)Nc3ccc(C)cc3C)c(-c3cccs3)c2c1N,"inconclusive: 39.8 µM [rising, single point]",
CCc1ccccc1Nc1nn2c(=O)c3ccc(C(=O)NC(C)c4ccccc4)cc3nc2s1 (stereo not drawn),,inactive: -15.2%
Nc1ncnc2c1c(-c1ccc(Cl)cc1)nn2-c1cccc(-c2cnnn2Cc2cccc(-c3ccccc3)c2)c1,"inconclusive: 16.8 µM [cytotoxic, partial curve, poor fit]",
COc1ccc(S(=O)(=O)NCC(c2ccco2)N2CCN(c3ccccc3)CC2)cc1OC (stereo not drawn),"inconclusive: 31.6 µM [rising, partial curve, poor fit]",
O=C(c1nccc2ccccc12)N1CCC(n2cc(-c3nc(-c4ccccc4)no3)nn2)C1 (stereo not drawn),"inconclusive: 22.4 µM [cytotoxic, single point]",
CCOC(=O)c1ccc(N2C(=O)c3n[nH]c(-c4ccco4)c3C2c2ccc(O)c(OCC)c2)cc1 (stereo not drawn),"inconclusive: 25.1 µM [cytotoxic, partial curve, poor fit]",
O=C(NCCc1ccc(F)cc1)c1ccc2nnc(-c3ccc(Cl)cc3)n2c1,,inactive: -13.8%
O=C(Nc1ccon1)[C@@H]1C[C@@H](c2ccc(F)cc2)N(Cc2ccccc2)C1,"inconclusive: 56.2 µM [cytotoxic, partial curve, poor fit]",
COc1ccc(-c2ccc3nnc(CNC(=O)c4ccco4)n3n2)cc1,,inactive: 8.65%
CC(C)c1cnc2c(c1SCC(=O)N1CCCCC1)c(=O)n(C)c(=O)n2C,"inconclusive: 17.8 µM [cytotoxic, partial curve, poor fit]",
COc1cccc(C(=O)N2CCC3(C2)C(=O)N(CCc2ccccc2)c2ccccc23)c1 (stereo not drawn),"inconclusive: 3.16 µM [cytotoxic, full curve, poor fit]",
Cc1cc(=O)n(CC(=O)NCc2ccc(OC(C)C)cc2)c2c1c(C)nn2-c1cccc(F)c1,,inactive: 0.691%
COCC1CN(Cc2ccc(Br)cc2)CC12CCNCC2 (stereo not drawn),"inconclusive: 25.1 µM [cytotoxic, partial curve, poor fit]",
COC(=O)N1CCCC(c2nn(-c3ccccn3)c(=O)[nH]2)C1 (stereo not drawn),,inactive: 0.345% [at 87.6 µM]
Cc1cc(C)cc(Nc2cc(C(=O)NC3CCC(C)CC3)c3ccccc3n2)c1 (stereo not drawn),"inconclusive: 39.8 µM [rising, single point]",
